Measurements: PubChem BioAssay AID1508642 (National Center for Advancing Translational Sciences (NCATS), 2021)
Hit rate of the full screen: of about 43,000 compounds, about 200 (0.47%) were called active. Not shown: some 12% with an inconclusive outcome. Calls follow the shape of the dose curve; as a rule, active = well fitted cell-killing curve with a large enough effect; inconclusive = small, poorly fitted or top-dose-only effect, or effect the other way; inactive = flat fitted curve, though single readings scatter. This is one part of the list.

Assay: Cell viability qHTS assay in S16 Pmp22-F2sN cells; also: nearly all actives have a fitted effect of over 65% in size
Conditions: S16 Pmp22-F2sN Schwann cells (luciferase reporters placed in the Pmp22 gene) viability, CellTiter-Glo, 24 h; series mostly up to 57.5 µM; activity change, negative = cytotoxicity: at the top concentration
In short: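 Luminescence from CellTiter-Glo, read by CCD camera after a 15 min room-temperature incubation, served as the viability signal. Reporter Schwann cells (S16 Pmp22-F2sN) had been treated with pin-transferred compounds for 24 h at 37C.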
% is scaled to controls: 0 for no effect and ±100 for the full control effect; potency is read from the fitted curve at half-maximal effect.

Row | SMILES | activity change, negative = cytotoxicity | Potency
1 | Cc1ccc(-n2nc(C)c3c(C)cc(=O)n(CC(=O)NC(C)c4ccccc4)c32)cc1 (stereo not drawn) | inactive: 2.92% | –
2 | Cn1c(=O)c2sccc2n2c(CCCC(=O)NC3CCCCC3)nnc12 | inactive: -11.3% | –
3 | COc1ccc(NCc2cc3cc4c(cc3n(CC(=O)Nc3ccc(C)c(C)c3)c2=O)OCO4)cc1 | inactive: 8.93% | –
4 | CC(C)(C)OC(=O)N1CCC(c2c(C(=O)N3CCCCC3)cnn2-c2ccccc2Cl)CC1 | inactive: 1.33% | –
5 | Cn1c(=O)oc2cc(S(=O)(=O)CCC(=O)NCCc3ccc(Cl)cc3)ccc21 | inactive: 8.43% | –
6 | COc1ccccc1OCc1nc(C#N)c(NCc2ccc(C)cc2)o1 | inactive: -9.67% | –
7 | COc1ccc(-c2nn(-c3ccccc3)cc2C2NC(=O)NC(C)=C2C(=O)OC(C)C)cc1Cl (stereo not drawn) | inactive: -22.1% | –
8 | Cc1ccc(Cl)cc1N1CCN(S(=O)(=O)c2cc(Br)cc3c2N(C(=O)C2CC2)CC3)CC1 | inactive: 8.92% | –
9 | CCCNC(=O)c1ccc(-n2c(-c3ccccc3)cc3c2CCC(C)C3)cc1 (stereo not drawn) | inactive: 25.3% | –
10 | CCOc1ccccc1NC(=O)c1c(NCc2sccc2C)sc2c1CCCCC2 | inactive: 6.22% | –
11 | O=c1oc2ccc(Br)cc2cc1-c1csc(-c2ccc(Cl)cc2)n1 | inactive: -0.102% | –
12 | O=C(CC(NCc1cccnc1)C(=O)O)Nc1ccc(F)cc1 (stereo not drawn) | inactive: -0.102% | –
13 | Cc1cccc(N2CCN(C(=O)CS(=O)(=O)c3cccc4nsnc34)CC2C)c1 (stereo not drawn) | inactive: -2.39% | –
14 | CCCN1C(=O)C2(c3ccccc31)c1c(oc3ccccc3c1=O)C(=O)N2CCO (stereo not drawn) | inactive: -3.98% | –
15 | C=Cc1ccc(Cn2c(C(=O)O)c(CNCc3cc(Br)ccc3OC)c3ccc(C)cc32)cc1 | inactive: 1.53% | –
16 | CN(C)S(=O)(=O)c1ccc2c(c1)N(CC(=O)N1CCN(c3ccc(F)cc3)CC1)CCS2 | inactive: 12.9% | –
17 | NC(=O)CSc1ncc2c(n1)-c1ccccc1N(Cc1cccc(F)c1)S2(=O)=O | inactive: 8.46% | –
18 | COc1ccc2nc3oc(C(=O)NCc4ccccc4OC)cc3cc2c1 | inactive: 10.1% | –
19 | COc1ccccc1-c1nnc(C2CCN(C(=O)c3ccc(C)cc3)CC2)o1 | inactive: 7.55% | –
20 | COc1ccc(-c2noc(-c3nnn(-c4cc(C)ccc4C)c3N)n2)cc1 | inactive: 6.22% | –
21 | Cc1ccc(-n2ncc(C(=O)NCCc3ccsc3)c2C2CCN(C(=O)OC(C)(C)C)CC2)cc1C | inactive: -11.6% | –

Row | SMILES | activity change, negative = cytotoxicity | Potency
22 | Cc1nc2ccccc2c(=O)n1-c1ccc(NC(=O)C(F)(F)F)cc1 | inactive: 4.91% | –
23 | CC1CCN(c2ccc(-c3nc(C(C)C)no3)cc2[N+](=O)[O-])CC1 | inactive: 5.25% | –
24 | CCN(CC)CCNC(=O)c1ccc(Cn2c(=O)c3cccn3c3cccnc32)cc1 | inactive: 0.63% | –
25 | Cc1ccc(-n2nc(CO)c(C(=O)NCc3cccs3)n2)cc1 | inactive: -12.7% | –
26 | O=C(Nc1ccc(Cl)cc1)N1CCN(c2ccc3nnc(-c4ccc(F)cc4)n3n2)CC1 | inactive: -27.5% | –
27 | COc1ccccc1Nc1cc(C(=O)NCc2cccs2)c2ccccc2n1 | inactive: -3.3% | –
28 | Cc1cc(NC(=O)Nc2nc3c(s2)CCCCCC3)ccc1Br | inactive: 28.9% | –
29 | Cc1ccc(NCc2nc3ccccc3n2CCOc2ccccc2)cc1 | inactive: -16.8% | –
30 | CCC(=O)N1CCc2cc(S(=O)(=O)CCC(=O)NCc3ccccc3OC)ccc21 | inactive: 1.45% | –
31 | Cc1cc(C)c(S(=O)(=O)NCC(c2cccs2)S(=O)(=O)c2ccccc2)c(C)c1 (stereo not drawn) | – | active: 12.6 µM
32 | Cc1nc(-c2ccccc2)sc1CCNS(=O)(=O)c1ccc(Br)cc1 | inactive: -11.9% | –
33 | CCNC(=O)Cc1ccc(NC(=O)N2CCCCc3ccccc32)cc1 | inactive: 16.4% | –
34 | CCCn1c2ccccc2c2cnn(CC(=O)NCCc3ccc(OC)cc3OC)c(=O)c21 | inactive: 14.8% | –
35 | CCN(CC)c1nn2c(=O)c(C(=O)NCc3ccc(F)cc3)cnc2s1 | inactive: 27.5% | –
36 | COc1ccc(CC(=O)NCCc2csc(-c3ccc(Cl)cc3)n2)cc1 | inactive: 15.9% | –
37 | CCn1nc(C)c(CCN(C)C(=O)Nc2cc(Cl)ccc2C)c1C | inactive: -2.08% | –
38 | CN(C1CCCCC1)S(=O)(=O)c1ccc2c(c1)c(=O)c(C(=O)NCCc1ccccc1)cn2C | inactive: 0.551% | –
39 | Cc1cccc(NC(=O)C2CCCN(S(=O)(=O)c3cnc[nH]3)C2)c1C (stereo not drawn) | inactive: 7.82% | –
40 | Cc1ccc2c(c1)cc(C(=O)Nc1ccc(F)cc1F)n2C | inactive: -17.4% | –
41 | CCC(C)NC(=O)c1cnn(-c2ccc(Cl)cc2)c1C1CCN(C(=O)OC(C)(C)C)CC1 (stereo not drawn) | inactive: -13.4% | –
42 | O=C(NCCc1ccc(Cl)cc1)c1ccc(CS(=O)Cc2cccc(Cl)c2)o1 (stereo not drawn) | inactive: -18.6% | –

Row | SMILES | activity change, negative = cytotoxicity | Potency
43 | Nc1nnc(SCC(=O)Nc2ccccc2C(F)(F)F)s1 | inactive: 10.6% | –
44 | COC(=O)c1n[nH]n(-c2ccccc2)c1=O | inactive: 4.41% | –
45 | CCOC(=O)c1cc(NC(=O)c2ccc(F)cc2)c(=O)n2c1oc1ccccc12 | inactive: 9.36% | –
46 | Cc1ccc(C(=O)N(Cc2ccc(N(C)C)cc2)Cc2ccco2)cc1 | inactive: -6.64% | –
47 | Cn1c(=O)c2cc(C(=O)N3CCN(c4ccc(Cl)cc4)CC3)sc2c2ccccc21 | inactive: 6.57% | –
48 | Cc1oc(-c2ccc(C(=O)Nc3cc(F)ccc3F)cc2)nc1COc1ccccc1 | inactive: -3.03% | –
49 | CN(c1ccc(Cl)cc1)S(=O)(=O)c1nnc(NC(=O)C2CCCCC2)s1 | inactive: 0.246% | –
50 | COc1cccc(NC(=O)CN(C)S(=O)(=O)c2ccc3nc(C)sc3c2)c1 | inactive: -5.71% | –
51 | COc1ccc(C)cc1N(C)C(=O)c1c(C)oc2ncnc(N3CCOCC3)c12 | inactive: -0.319% | –
52 | CCOc1ccccc1NC(=O)c1c(NC(=O)c2ccccc2C)sc2c1CCC(C)C2 (stereo not drawn) | inactive: 6.23% | –
53 | COC(=O)c1c(C)sc(-c2c(-c3ccc4c(c3)OCCO4)[nH]c3c2c(=O)n(C)c(=O)n3C)c1O | inactive: 18.3% | –
54 | CCNC(=O)c1cnc2sc(N3CCCCCC3)nn2c1=O | inactive: 22.6% | –
55 | COc1cc(C(=O)Oc2c(Sc3ccc(C)cc3)c(C)nn2-c2ccccc2)cc(OC)c1OC | inactive: 0.765% | –
56 | CCOc1ccc(CNC(=O)CCC(=O)N2CC(C)Sc3ccccc32)cc1 (stereo not drawn) | inactive: 6.55% | –
57 | CCOc1ccc(CCNC(=O)CCCn2nc(C)c3sc4ccccc4c3c2=O)cc1OCC | inactive: 4.93% | –
58 | O=C(CSc1nccn1-c1ccccc1)Nc1nc2ccccc2s1 | inactive: -9.94% | –
59 | CCn1c2ccccc2c2nnc(SCCN3CCCCC3)nc21 | inactive: -5.08% | –
60 | N#C/C(=C/c1cn(Cc2ccc(F)cc2)c2ccccc12)C(=O)Nc1cccc(Cl)c1 | inactive: -25.4% | –
61 | COc1ccccc1Nc1nn2c(=O)c3ccc(C(=O)NCCCOC(C)C)cc3nc2s1 | inactive: 0.54% | –
62 | COC(=O)CC1c2cc(OC)c(OC)cc2CCN1C(=O)Nc1ccc(C)cc1Cl (stereo not drawn) | inactive: -20% | –
63 | COc1cc(-c2noc(-c3ccc(NCc4cccnc4)c([N+](=O)[O-])c3)n2)cc(OC)c1OC | inactive: -7.54% | –
